Measurements published in the supplement of paper PMC10320760.
Single values of this set are uncertain.

B1: Ydj1; a variant is named by its letters at X, in order (parent)
chain: MVKETKFYDILGVPVTATDVEIKKAYRKCALKYHPDKNPSEEAAEKFKEASAAYEILSDPEKRDIYDQFGEDGLSGAGGAGGFPGGGFGFGDDIFSQFFGAGGAQRPRGPQRGKDIKHEISASLEELYKGRTAKLALNKQILCKECEGRGGKKGAVKKCTSCNGQGIKFVTRQMGPMIQRFQTECDVCHGTGDIIDPKDRCKSCNGKKVENERKILEVHVEPGMKDGQRIVFKGEADQAPDVIPGDVVFIVSERPHKSFKRDGDDLVYEAEIDLLTAIAGGEFALEHVSGDWLKVGIVPGEVIAPGMRKVIEGKGMPIPKYGGYGNLIIKFTIKFPENHFTSEENLKKLEEILPPRIVPAIPKKATVDECVLADFDPAKYNRTRASRGGANYDSDEEEQGGEGVQCXXX

Variants of: B1
Test: enrichment factor, frequency at 37 °C / frequency at 25 °C (thermotolerance selection) (ratio); higher = more growth at 37 °C, higher likelihood of farnesylation
Conditions: with Saccharomyces cerevisiae ydj1Δ (yWS304); selective temperature 37 °C; reference temperature 25 °C
Method: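 Pooled library of all 8,000 Ydj1-CXXX C-terminal motif variants (native CASQ replaced by C + three variable residues, one codon per amino acid) expressed from a CEN plasmid in S. cerevisiae ydj1Δ (yWS304). The library was grown in SC-Ura liquid to A600 ~2 (~8 generations) at permissive 25 °C or selective 37 °C. Reads from 8 and 7 replicates were pooled and variants counted by NGS. Enrichment factor = frequency at 37 °C / frequency at 25 °C, with a +1 correction; it reports Ydj1-dependent thermotolerance, used as a read-out of farnesylation by yeast FTase.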

Variant | enrichment factor
DFI | 1.94
DFL | 1.16
DFS | 1.35
DFW | 0.643
DFN | 1.47
DFK | 0.201
DFH | 0.378
DFE | 0.114
DFV | 1.97
DFF | 1.1
DFT | 1.51
DFR | 0.153
DFY | 0.255
DFG | 1.14
DFP | 0.165
DFQ | 1.98
DFM | 1.13
GFQ | 1.72
GFK | 0.112
GFR | 0.122
GFW | 1.25
GFL | 1.78
GFV | 1.12
GFP | 0.183

Variant | enrichment factor
GFM | 1.1
GFG | 1.97
GFH | 2.06
GFT | 1.9
GFS | 2.07
GFN | 1.81
GFF | 1.43
GFY | 1.27
GFI | 2.11
QFS | 2.64
QFL | 1.02
QFH | 3.76
QFG | 2.57
QFF | 1.46
QFY | 2.01
QFM | 1.43
QFW | 2.01
QFP | 0.184
QFR | 0.47
QFK | 1.44
QFV | 1.16
QFI | 1.35
QFT | 3.26
QFN | 4.71

Variant | enrichment factor
QFQ | 3.23
HFQ | 2.01
HFW | 1.82
HFG | 1.87
HFY | 2.24
HFP | 0.911
HFN | 6.18
HFV | 5.5
HFL | 1.9
HFF | 2.17
HFI | 2.9
HFS | 4.95
HFK | 0.519
HFM | 2.32
HFR | 0.156
HFT | 4.57
HFH | 2.75
GGA | 0.321
MFG | 3.19
MFL | 2.04
MFW | 1.59
MFV | 4.63
MFQ | 1.68
MFF | 1.47

Variant | enrichment factor
MFS | 1.09
MFR | 0.251
MFK | 0.353
MFP | 0.153
MFY | 1.88
MFI | 0.772
MFH | 5.13
MFM | 0.737
MFN | 1.54
MFT | 2.68
IFT | 0.643
IFI | 0.434
IFH | 2.32
IFL | 1.45
IFG | 1.24
IFK | 1.57
IFN | 0.869
IFR | 0.562
IFM | 2.9
IFS | 1.39
IFW | 1.45
IFY | 1.16
IFQ | 3.76
IFV | 1.74

Variant | enrichment factor
IFP | 0.143
FGA | 0.823
VFR | 1.56
VFW | 0.662
VFQ | 0.993
VFS | 1.54
VFH | 2.08
VFV | 0.869
VFI | 1.74
VFK | 2.34
VFG | 2.9
VFE | 1.9
VFT | 1.45
VFL | 0.827
VFY | 1.01
VFP | 0.124
VFM | 0.927
VFN | 0.98
TFG | 2.17
TFW | 2.43
TFL | 0.811
TFE | 2.04
TFH | 7.72
TFP | 0.194

Variant | enrichment factor
TFI | 1.16
TFQ | 2.43
TFR | 0.719
TFS | 6.95
TFK | 1.61
TFN | 1.74
TFM | 1.16
TFY | 2.03
TFV | 1.35
TFF | 0.772
TFT | 4.21
HGA | 0.711
KGA | 0.846
MGA | 1.02
EFN | 2.12
EFM | 0.842
EFT | 1.26
EFP | 0.202
EFR | 0.984
EFY | 1.5
EFW | 1.31
EFH | 3.32
EFV | 2.4
EFS | 1.11

Variant | enrichment factor
EFK | 1.05
EFQ | 3.28
EFF | 1.31
EFG | 1.28
EFL | 1.86
EFI | 1.57
CFN | 0.993
CFH | 0.886
CFQ | 0.901
CFG | 1.45
CFI | 1.65
CFM | 0.338
CFP | 1.23
CFY | 0.158
CFV | 0.29
CFR | 0.446
CFS | 0.414
CFW | 0.203
CFT | 1
CFL | 0.386
CFK | 0.42
CFF | 0.531
YFM | 1.16
YFL | 1.54

Variant | enrichment factor
YFH | 2.32
YFI | 2.75
YFT | 3.59
YFR | 0.192
YFS | 3.97
YFF | 1.38
YFV | 3.04
YFQ | 0.811
YFY | 1.46
YFE | 0.913
YFK | 0.169
YFW | 1.08
YFG | 2.2
YFP | 0.273
YFN | 1.65
SFL | 2.35
SFM | 0.526
SFP | 0.129
SFS | 1.95
SFI | 0.579
SFG | 2.98
SFE | 1.68
SFH | 4.48
SFV | 3.86

Variant | enrichment factor
SFR | 0.247
SFK | 0.455
SFQ | 1.68
SFY | 3.44
SFT | 2.35
SFW | 1.79
SFF | 2.42
SFN | 1.48
WFS | 1.96
WFT | 1.52
WFP | 1.48
WFW | 1.65
WFF | 1.27
WFK | 0.291
WFR | 0.399
WFI | 1.59
WFM | 0.772
WFE | 1.52
WFV | 1.38
WFY | 1.4
WFN | 1.68
WFH | 1.75
WFQ | 1.24
WFG | 1.35

Variant | enrichment factor
WFL | 1.54
NFQ | 3.29
NFF | 1.01
NFW | 1.35
NFK | 1.01
NFR | 0.414
NFV | 2.32
NFY | 2.05
NFL | 1.22
NFT | 1.43
NFS | 5.02
NFP | 0.152
NFN | 1.9
NFI | 0.941
NFH | 4
NFM | 1.09
NFG | 3.11
LGA | 1.33
EGA | 0.519
AFW | 1.35
AFM | 1.68
AFR | 0.584
AFQ | 2.43
AFV | 2.7

Variant | enrichment factor
AFK | 1.74
AFT | 2.5
AFI | 1.39
AFG | 3.97
AFN | 1.75
AFE | 1.58
AFL | 0.827
AFP | 0.0998
AFF | 1.16
AFY | 2.32
AFH | 2.7
AFS | 2.98
LFH | 2.7
LFG | 2.06
LFF | 0.772
LFI | 1.04
LFW | 1.36
LFN | 0.984
LFS | 1.83
LFK | 1.25
LFP | 0.217
LFR | 0.195
LFM | 1.74
LFT | 1.79

Variant | enrichment factor
LFQ | 2.8
LFV | 0.927
LFY | 1.74
LFL | 1.8
FFF | 1.87
FFR | 0.171
FFQ | 0.927
FFP | 1.19
FFL | 1.77
FFY | 1.12
FFW | 1.68
FFT | 3.31
FFV | 5.09
FFK | 0.284
FFI | 2.24
FFS | 2.66
FFN | 3.47
FFH | 1.87
FFG | 0.894
IGA | 1.14
RFE | 1.67
RFP | 0.116
RFF | 0.579
RFS | 4.25

Variant | enrichment factor
RFM | 1.42
RFT | 1.23
RFL | 1.9
RFQ | 2.24
RFR | 0.129
RFW | 0.993
RFN | 5.1
RFH | 1.97
RFI | 1.54
RFV | 0.632
RFY | 2.47
RFG | 1.99
RFK | 0.395
PFH | 2.13
PFN | 1.78
PFG | 1.28
PFL | 1.04
PFW | 0.767
PFP | 0.183
PFQ | 1.88
PFS | 1.51
PFK | 0.881
PFT | 1.67
PFM | 0.822

Variant | enrichment factor
PFV | 1.33
PFI | 0.993
PFR | 0.203
PFF | 0.386
PFY | 1.39
AGA | 1.51
KFQ | 8.77
KFF | 1.06
KFN | 2.32
KFY | 1.88
KFG | 1.38
KFH | 1.83
KFT | 2.8
KFS | 4.12
KFR | 0.211
KFV | 1.42
KFI | 1.54
KFL | 1.1
KFM | 0.681
KFK | 0.269
KFW | 0.744
KFP | 0.214
